Data as given in PMC13042919.
Like-named read-outs stand apart in the source and are kept apart here. No constants are given. Whether binding was seen depends on the method and setting. In cells and extracts the contact can be indirect. Some entries that bind do so weakly or less than the wild type.

Protein sequences, listed by entry. Tags and fused reporters are not part of them. Lines headed by an entry give the natural chain unless they say otherwise; changes in a name come on top. Chains listed by the source or under a name are the forms on record and can include a tag or linker. Residues count along the entry.
UniProt O15392: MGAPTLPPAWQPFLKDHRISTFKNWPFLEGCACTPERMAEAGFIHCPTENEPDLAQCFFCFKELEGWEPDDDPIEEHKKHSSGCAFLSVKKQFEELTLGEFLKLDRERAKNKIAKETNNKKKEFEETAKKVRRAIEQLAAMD
GST-SVN 20-90 aa (BIR domain of survivin): residues 20-90 of O15392
GST-SVN 90-142 aa (C-terminus of survivin): residues 90-142 of O15392
GST-SVN(DD70-71AA) (O15392, form named): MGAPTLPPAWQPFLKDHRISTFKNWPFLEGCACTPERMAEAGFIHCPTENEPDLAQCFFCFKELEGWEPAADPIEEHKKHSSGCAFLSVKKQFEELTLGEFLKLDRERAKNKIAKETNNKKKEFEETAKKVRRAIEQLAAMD
UniProt Q96GD4: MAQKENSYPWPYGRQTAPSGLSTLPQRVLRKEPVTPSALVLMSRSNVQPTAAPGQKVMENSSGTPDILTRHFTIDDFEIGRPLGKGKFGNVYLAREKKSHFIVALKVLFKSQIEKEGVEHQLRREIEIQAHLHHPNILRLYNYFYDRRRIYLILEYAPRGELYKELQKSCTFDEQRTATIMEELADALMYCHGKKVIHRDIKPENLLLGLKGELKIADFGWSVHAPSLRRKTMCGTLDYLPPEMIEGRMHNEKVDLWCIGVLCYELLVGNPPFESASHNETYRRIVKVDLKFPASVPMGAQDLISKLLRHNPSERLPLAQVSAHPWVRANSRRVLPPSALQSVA

What was measured:
GST-SVN(DD70-71AA) [1] = target: GST-SVN(DD70-71AA) (UniProt O15392); assay: pull-down; purified GST-survivin, truncations or DD70-71AA on glutathione beads incubated 2 h at 4 °C with in vitro translated (TNT-T7 reticulocyte) AURKA-Venus or AURKB; immunoblot; only the target purified
[2] = target: GST-survivin, full-length (GST-SVN 1-142 aa) (UniProt O15392); assay: as above
[3] = target: GST-survivin, full-length (GST-SVN 1-142 aa) (UniProt O15392); assay: pull-down; as a1, but extract of HeLa cells harvested 2 h after release from DMA (cytokinesis); only the target purified
[4] = target: GST-SVN 20-90 aa (BIR domain of survivin) (UniProt O15392); assay: pull-down; purified GST-survivin truncations on glutathione beads incubated 2 h at 4 °C with asynchronous HeLa whole cell extract; immunoblot for AURKA; only the target purified
survivin-GFP = survivin-GFP (UniProt O15392); assay: co-IP; GFP-Trap beads with lysates of asynchronous HeLa stable lines expressing GFP or survivin-GFP; 10 mM Tris/HCl pH 7.5, 150 mM NaCl, 0.5 mM EDTA, 0.5% NP-40; 4 °C; immunoblot for AURKA
[5] = target: GST-survivin, full-length (GST-SVN 1-142 aa) (UniProt O15392); assay: pull-down; purified GST-survivin on glutathione beads incubated 2 h at 4 °C with extracts of HeLa cells synchronised with DMA (prometaphase), released into MG132 (metaphase) or 1 h into drug-free medium (anaphase-telophase); washes 50 mM Tris/HCl pH 8.0, 150 mM NaCl, 1% NP-40; immunoblot for AURKA; only the target purified
survivin T34A = survivin T34A (UniProt O15392); assay: pull-down; GST pulldown with survivin point mutants T34A/E and T48A/E (Fig. S2D,E); source of AURKA not told in what was shown
survivin T34E = survivin T34E (UniProt O15392); assay: as above
survivin T48A = survivin T48A (UniProt O15392); assay: as above
survivin T48E = survivin T48E (UniProt O15392); assay: as above
[6] = target: GST-SVN 20-90 aa (BIR domain of survivin) (UniProt O15392); assay: pull-down; purified GST-survivin, truncations or DD70-71AA on glutathione beads incubated 2 h at 4 °C with in vitro translated (TNT-T7 reticulocyte) AURKA-Venus or AURKB; immunoblot; only the target purified
[7] = target: GST-SVN 90-142 aa (C-terminus of survivin) (UniProt O15392); assay: as above
GST-SVN(DD70-71AA) [8] = target: GST-SVN(DD70-71AA) (UniProt O15392); assay: as above; remark: listed apart in the source
[9] = target: GST-survivin, full-length (GST-SVN 1-142 aa) (UniProt O15392); assay: as above; remark: listed apart in the source

## AURKB, in vitro translated (from UniProt Q96GD4 1-344) (enzyme)
GST-SVN(DD70-71AA) [1]
  binding: no binding
[2]
  binding: binds

B1: aurora kinase A (AURKA), endogenous in HeLa cells (enzyme, UniProt O14965 1-403)
chain: MDRSKENCISGPVKATAPVGGPKRVLVTQQFPCQNPLPVNSGQAQRVLCPSNSSQRIPLQAQKLVSSHKPVQNQKQKQLQATSVPHPVSRPLNNTQKSKQPLPSAPENNPEEELASKQKNEESKKRQWALEDFEIGRPLGKGKFGNVYLAREKQSKFILALKVLFKAQLEKAGVEHQLRREVEIQSHLRHPNILRLYGYFHDATRVYLILEYAPLGTVYRELQKLSKFDEQRTATYITELANALSYCHSKRVIHRDIKPENLLLGSAGELKIADFGWSVHAPSSRRTTLCGTLDYLPPEMIEGRMHDEKVDLWSLGVLCYEFLVGKPPFEANTYQETYKRISRVEFTFPDFVTEGARDLISRLLKHNPSQRPMLREVLEHPWITANSSKPSNCQNKESASKQS
[3]
  binding: binds weakly
[4]
  binding: binds
survivin-GFP
  binding: binds
[5]
  binding: binds

B2: AURKA-Venus, in vitro translated (enzyme, UniProt O14965 1-403)
chain: MDRSKENCISGPVKATAPVGGPKRVLVTQQFPCQNPLPVNSGQAQRVLCPSNSSQRIPLQAQKLVSSHKPVQNQKQKQLQATSVPHPVSRPLNNTQKSKQPLPSAPENNPEEELASKQKNEESKKRQWALEDFEIGRPLGKGKFGNVYLAREKQSKFILALKVLFKAQLEKAGVEHQLRREVEIQSHLRHPNILRLYGYFHDATRVYLILEYAPLGTVYRELQKLSKFDEQRTATYITELANALSYCHSKRVIHRDIKPENLLLGSAGELKIADFGWSVHAPSSRRTTLCGTLDYLPPEMIEGRMHDEKVDLWSLGVLCYEFLVGKPPFEANTYQETYKRISRVEFTFPDFVTEGARDLISRLLKHNPSQRPMLREVLEHPWITANSSKPSNCQNKESASKQS
Survivin T34A
  binding: binds
Survivin T34E
  binding: binds
Survivin T48A
  binding: binds
Survivin T48E
  binding: binds
[6]
  binding: binds
[7]
  binding: no binding
GST-SVN(DD70-71AA) [8]
  binding: binds
[9]
  binding: binds
